The structures appear in SMILES notation. In all, about 13,000 compounds were measured (“IFI”: median about 4, highest 2% from about 17 on). This is one part of the list.

This experiment is described as follows: GSK_TCMDC: Inhibition Frequency Index (IFI). The number of non-kinase HTS assays where a compound showed > 50 % inhibition, expressed as a percentage of the number of such assays in which the compound was tested (-0 is zero). It is filed as functional.
With `CCCCC(N)COc1cccc2c(-c3ccncc3)c(-c3cccc(NC(=O)Nc4ccccc4)c3)nn12` (configuration not stated), the IFI amounted to 14.1%.
Molecule `CC1(C)N=C(N)N=C(NOCCCCCCONC2=NC(N)=NC(C)(C)N2)N1` returned an IFI of 1.44%.
On to `Cc1onc(-c2ccc(Cl)cc2)c1-c1ccnn1S(=O)(=O)c1ccc(Cl)cc1`, for which the IFI was 0.72%.
`NS(=O)(=O)c1ccc(CNc2ccc3ncc(-c4ccc(OC(F)(F)F)cc4)n3n2)cc1` yielded an IFI of 3.05%.
The molecule `CCNc1cc(C(=O)N[C@@H](Cc2ccccc2)[C@H](O)CNCc2cc(OC)cc(OC)c2)cc(N2CCCS2(=O)=O)c1` showed an IFI of 2.16%.
In the case of `Cc1cccc(CC(=N)NCCCCCCNC(=N)Cc2cccc(C)c2)c1` it was 3.73%; in that of `CC(C)(C)c1ccc(NC(=O)c2ccc(CN3CCCN(Cc4ccsc4)CC3)cc2)cc1`, 13.8%; in that of `FC(F)(F)c1ccc2[nH]c(-c3ccc(-c4ccc(CNCCN5CCNCC5)cc4)s3)nc2c1`, 12.8%.
`COc1ccc(NC(=O)CCNc2cc(C)nc(NCCc3ccc(F)cc3)n2)cc1` displayed an IFI of 4.88%.
In turn, `COc1ccc2nccc([C@@H](O)CN3CCC(NC(=O)c4ccc5nc(-n6cccc6)sc5c4)CC3)c2c1` returned an IFI of 0.74%.
In the case of `CN1CCN(Cc2ccc(-c3cccc(-c4nc5ccccc5[nH]4)c3)cc2)CC1`, the IFI was found to be 2.88%.
Consider `CCNC(=O)c1ccc2c(c1)c(C)c(C)n2Cc1ccc(F)cc1`, for which the IFI came to 4.17%.
In the case of `COc1ccc2ncc(Cl)c(CCN3CCC(NCc4ccc5c(n4)NC(=O)CO5)CC3)c2c1` it was 3.68%; in that of `CC(C)n1cc2c(ccc3nc(N)nc(N)c32)n1`, 3.52%.
For the molecule `N#Cc1cc(C(=O)c2cc(Br)ccc2O)cn(C2CCCCC2)c1=O`, the IFI was 2.78%.
In the case of `O=C(NCCCCN1CCC(c2ccc3c(c2OCCN2CCCC2)CCCC3)CC1)c1ccc(-c2ccc(C(F)(F)F)cc2)cc1` it was 5.45%; in that of `O=C(NCCc1ccccc1)N(Cc1cccc(-c2ccc(CNCc3ccc4c(c3)OCO4)cc2)c1)C1CCN(Cc2ccccc2)CC1`, 6.57%.
In the case of `Nc1ncc(-c2ccc(F)cc2)cc1-c1nc2ccc(Cl)cc2[nH]1` it was 5.04%.
For the molecule `COCC(C)n1c(SC(C)C(=O)Nc2cc([N+](=O)[O-])ccc2Cl)nc2ccccc2c1=O` (configuration not stated), the IFI was 5.92%.
In the case of `CCN(CC)CCNC(=O)c1ccc(NC(=O)c2ccc(-c3cc(NC(=O)CC4CCCC4)ccc3C)cc2)cc1` it was 8.7%.
Take `O=C(NCCCCCN1CCC(c2c[nH]c3ccccc23)CC1)Nc1cccc(Cl)c1`: the IFI was 6.85%.
The molecule `Cc1ccccc1C1CCN(C2CCC(NC(=O)/C=C/c3cccc(F)c3)CC2)CC1` (configuration not stated) had an IFI of 6.67%.
In the case of `CCc1c(CCNCCCCCCNCCc2ccc([N+](=O)[O-])cc2)ccc(OC)c1OC` it was 6.94%.
Molecule `Cc1cc(N/N=C/c2ccccc2[N+](=O)[O-])c2cc(F)ccc2n1` displayed an IFI of -0%.
`O=C(O)c1cc(OCC(O)COc2ccc(O)c(C(=O)O)c2)ccc1O` came in with an IFI of -0%.
In the case of `CCN(CC)CCCNc1ncc2c(-c3ccc(NC(=O)Nc4cc(C(F)(F)F)ccc4F)cc3)nn(C)c2n1` it was 10.8%; in that of `CC(C)C[C@H](Nc1ccc(C#N)c2ccccc12)C(=O)NC(C)(C)C12CC3CC(CC(C3)C1)C2`, 0.94%; in that of `CS(=O)(=O)CCNCc1nc(-c2ccc3ncnc(Nc4ccc(OCc5cccc(F)c5)c(Cl)c4)c3c2)cs1`, 1.36%.
In the case of `NC(=O)c1ccc(NCC(=O)Nc2cccc(-c3cccc(-c4nc5ccccc5[nH]4)c3)c2)cc1` it was 6.6%.
`Cc1ccn2c(C(=O)N3CCN(c4cccc5c4nc(-c4ccoc4)n5Cc4ccccn4)CC3)c(C)nc2c1` returned an IFI of 1.85%.
In the case of `Cc1cccc(CNc2nc(C)cc(NCCC(=O)NCCOc3ccccc3)n2)c1` it was 7.32%.
In turn, `O=C(CSc1nccn1C1CCCCC1)Nc1cc(C(F)(F)F)ccc1Cl` displayed an IFI of 1.96%.
In the case of `COc1ccc(Cn2cncc2CN(CCC(C)C)C(=O)c2ccc(Cl)nc2Cl)cc1` it was 2.82%; in that of `Cc1ccc(C2(C)CN(CCCOc3cccc(-c4ccc(C(=O)NC(C)C)cc4)c3)CCO2)cc1` (configuration not stated), 7.55%; in that of `CN(C)CCCNCc1cn(S(=O)(=O)c2ccccc2Cl)c2ccccc12`, 2.52%.
For `CCOc1ccc(-c2nonc2NC(=O)c2ccccc2F)cc1OCC`, the IFI was found to be 1.56%.
In the case of `Cc1nc(NC(=N)N)nc2ccc(C(C)(C)C)cc12` it was 4.65%.
In the case of `CC(O)c1cccc(-c2ccc(Nc3ccnc4cc(-c5nccs5)ccc34)cc2)c1` (configuration not stated) it was 5.19%; in that of `CC(Cc1ccc(NC(=O)c2ccc(NCCc3ccccc3)cc2)cc1)NCCc1cccc(Cl)c1` (configuration not stated), 7.41%.
In the case of `Cc1cccc(CNc2nc(C)cc(N[C@@H](Cc3ccccc3)C(=O)NCCOc3ccccc3)n2)c1` it was 17.1%; in that of `Cc1cccc(Cn2ccc3c4c(N)nc(N)nc4ccc32)c1`, 2.46%.
Molecule `Cc1ccc(F)c(OCC2CCN(c3ccc(C(=O)NC4CC4)cn3)CC2)c1` registered an IFI of 0%.
On to `N#Cc1cnc(Nc2ccc(Oc3ccccc3)cc2)nc1Nc1cccc(S(N)(=O)=O)c1`, for which the IFI amounted to 3.01%.
In the case of `Cc1ncccc1C(=O)Nc1cccc(-c2cccc(-c3nc4cc(C(F)(F)F)ccc4[nH]3)c2)c1` it was 6.6%; in that of `O=C1COc2cc(Cl)c(CNC3CCN(CCc4ccnc5c(F)cc(F)cc45)CC3)nc2N1`, 4.72%; in that of `Cn1nc(-c2ccc(NC(=O)Nc3cc(C(F)(F)F)ccc3F)c(F)c2)c2cnc(NCCCn3ccnc3)nc21`, 5.84%.
As to `COc1ccc(CCn2c(=N)c(C(=O)NCc3ccccc3)cc3c(=O)n4cccc(C)c4nc32)cc1`, the IFI worked out at 5.93%.
As to `CC(=O)N(C)c1ccc(C(=O)Nc2cccc(-c3cccc(-c4nc5cccc(C)c5[nH]4)c3)c2)cc1`, the IFI amounted to 2.65%.
In the case of `NCCc1cccc(-c2cnc3[nH]cc(-c4ccc(C(=O)O)cc4)c3c2)c1` it was 2.97%.
In turn, `O=C(/C=C/c1ccc(Cl)c(Cl)c1)NCCCCCN1CCCN(C(=O)Nc2ccc(F)c(F)c2)CC1` yielded an IFI of 6.67%.
`Cc1nc(C)c(-c2ccc(Oc3cccc(OC(F)(F)F)c3)cc2)c(O)c1Br` yielded an IFI of 6.02%.
`COc1ccc2[nH]cc(C3CCN(CCCCNC(=O)c4ccc(NC(=O)c5ccc(Cl)cc5)cc4)CC3)c2c1` showed an IFI of 2.26%.
`Oc1c(C(Nc2ccccn2)c2ccc(Cl)cc2Cl)ccc2cccnc12` (configuration not stated) gave an IFI of 4.64%.
For the molecule `Cc1c(C)c2c(c(C)c1O)CCC(C)(CCC(=O)O)O2` (configuration not stated), the IFI turned out to be 1.52%.
`CC(=O)Nc1ncc(C(=O)Nc2ccc(-c3cccc(-c4nc5cc(C(F)(F)F)ccc5[nH]4)c3)cc2)s1` gave an IFI of 6.42%.
Take `CCCC(CC)n1ccc2c3c(N)nc(N)nc3ccc21` (configuration not stated): the IFI amounted to 4.55%.
Molecule `O=C(NCCCN1CCCC1=O)NCc1ccccc1` had an IFI of 0%.

The record behind these values is ChEMBL document CHEMBL1157539, “Thousands of chemical starting points for antimalarial lead identification” (Nature, 2010).
